Data as given in patent US11964052B2, “Lipid compounds and lipid nanoparticle compositions” (SUZHOU ABOGEN BIOSCIENCES CO., LTD., priority 2021, dated 2024).
The name of at least one read-out is uncertain. Some entries repeat one wording, which the source may state once for all of them.

Test system: human erythropoietin (hEPO) mRNA
Assay: Animal study: hEPO mRNA LNPs given to mice by tail vein injection, serum hEPO by ELISA kit, expression relative to MC3 LNPs
Assay type: in vivo
Details: hEPO mRNA LNP, 0.5 mg/kg, female ICR mice, blood sampled e.g. 6 hours post administration

Row | SMILES | Expression over MC3
1 | CCCCCCCCCCCCOCC(CN(CCCCCC(=O)OCC(CCCCCC)CCCCCCCC)CCN(CCO)C1CCCCC1)OC(C)=O (stereo not shown) [Compound 21] | D (<0.1)
2 | CCCCCCCCCCCCOCC(CN(CCCCCC(=O)OCC(CCCCCC)CCCCCCCC)CCN(CCO)C1CCC1)OCCCCCC (stereo not shown) [Compound 23] | B (≥1 and <2)
3 | CCCCCCCCCCCCOCC(CN(CCCCCC(=O)OCC(CCCCCC)CCCCCCCC)CCN(CCO)C1CCCC1)OCCCCCC (stereo not shown) [Compound 24] | C (≥0.1 and <1)
4 | CCCCCCCCCCCCOCC(CN(CCCCCC(=O)OCC(CCCCCC)CCCCCCCC)CCN(CCO)C1CCCCC1)OCCCCCC (stereo not shown) [Compound 25] | C (≥0.1 and <1)
5 | CCCCCCCCCCCCOCC(CN(CCCCCC(=O)OCC(CCCCCC)CCCCCCCC)CCN(CCO)C1CCCCCC1)OCCCCCC (stereo not shown) [Compound 26] | C (≥0.1 and <1)
6 | CCCCCCCCCCCCOCC(CN(CCCCCC(=O)OCC(CCCCCC)CCCCCCCC)CCN(CCO)C1CCC1)OCCCCCCCCCCCC (stereo not shown) [Compound 28] | D (<0.1)
7 | CCCCCCCCCCCCOCC(CN(CCCCCC(=O)OCC(CCCCCC)CCCCCCCC)CCN(CCO)C1CCCC1)OCCCCCCCCCCCC (stereo not shown) [Compound 29] | C (≥0.1 and <1)
8 | CCCCCCCCCCCCOCC(CN(CCCCCC(=O)OCC(CCCCCC)CCCCCCCC)CCN(CCO)C1CCCCC1)OCCCCCCCCCCCC (stereo not shown) [Compound 30] | D (<0.1)
9 | CCCCCCCCCCCCOCC(CN(CCCCCC(=O)OCC(CCCCCC)CCCCCCCC)CCN(CCO)C1CCCCCC1)OCCCCCCCCCCCC (stereo not shown) [Compound 31] | D (<0.1)
10 | CCCCCCCCCCCCOCC(CN(CCCCCC(=O)OCC(CCCCCC)CCCCCCCC)CCN(CCO)C1CC1)OCCCCCCCC (stereo not shown) [Compound 34] | D (<0.1)
11 | CCCCCCCCCCCCOCC(CN(CCCCCC(=O)OCC(CCCCCC)CCCCCCCC)CCN(CCO)C1CCCC1)OCCCCCCCC (stereo not shown) [Compound 35] | C (≥0.1 and <1)
12 | CCCCCCCCCCCCOCC(CN(CCCCCC(=O)OCC(CCCCCC)CCCCCCCC)CCN(CCO)C1CCCCC1)OCCCCCCCC (stereo not shown) [Compound 36] | C (≥0.1 and <1)
13 | CCCCCCCCCCCCOCC(CN(CCCCCC(=O)OCC(CCCCCC)CCCCCCCC)CCN(CCO)C1CCCCCC1)OCCCCCCCC (stereo not shown) [Compound 37] | C (≥0.1 and <1)
14 | CCCCCCCCCCCCOCC(CN(C)CCN(CCO)C1CCC1)OCCCCCC (stereo not shown) [Compound 38] | D (<0.1)
15 | CCCCCCCCCCCCOCC(CN(C)CCN(CCO)C1CCC1)OCCCCCCCCCCCC (stereo not shown) [Compound 39] | D (<0.1)
16 | CCCCCCCCCCCCOCC(CN(C)CCN(CCO)C1CCCCC1)OCCCCCC (stereo not shown) [Compound 45] | D (<0.1)
17 | CCCCCCCCC(CCCCCCCC)CNC(=O)CCOCC(CN(C)CCN(CCO)C1CCCCC1)OCCC(=O)NCC(CCCCCCCC)CCCCCCCC (stereo not shown) [Compound 52] | D (<0.1)
18 | CCCCCCCCC(CCCCCCCC)CNC(=O)CCOCC(CN(C)CCN(CCO)C1CCCC1)OCCC(=O)NCC(CCCCCCCC)CCCCCCCC (stereo not shown) [Compound 57] | C (≥0.1 and <1)
19 | CCCCCCCCC(CCCCCCCC)CNC(=O)CCOCC(CN(C)CCN(CCO)C1CCCCCC1)OCCC(=O)NCC(CCCCCCCC)CCCCCCCC (stereo not shown) [Compound 58] | D (<0.1)
